The text below walks through data of PubChem BioAssay AID1918940 (Molecular Pharmacology Branch, DTP, NCI, 2023).

This experiment concerns NCI-H211 complex spheroid viability. Description: Anticancer human tumor NCI-H211 cell line growth inhibition [LSD1].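 On all read-outs here: luminescent viability read after seven days of drug exposure.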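 On viability, T/C: 100% = DMSO vehicle control viability.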 Conditions: for IC50: compound alone; for viability, T/C: stronger effect = lower value. The text has this: Multicellular complex tumor spheroid response to LSD1 Inhibitor Iadademstat in combination with a variety of drugs and investigational agents in selected tumor cell lines
The current study was undertaken to assess response to LSD1 inhibitors in combination with standard-of-care drugs and investigational agents in solid tumor complex spheroid models as well as in the K-562 leukemia. Complex spheroids include a stromal component modeled by human endothelial cells (HUVEC) and fibroblasts modeled by human mesenchymal stem cells (MSCs). The concentration ranges selected for each drug and investigational agent were based upon clinically achievable concentrations if the clinical Cmax of the agent was known.
Compounds. The drugs and investigational agents used in this study are listed on Table 1. All of the agents used, including staurosporine (NSC755774) and gemcitabine (NSC613327), were obtained from the Developmental Therapeutics Program, NCI. FDA-approved anticancer drugs are available from the NCI at http://dtp.nci.nih.gov/branches/dscb/oncology_drugset_explanation.html. Drugs and investigational agents were >95% pure by proton nuclear magnetic resonance (NMR) and liquid chromatography/mass spectrometry (LC/MS). Stock solutions were prepared at 400x in DMSO, stored at -70 degrees C, and diluted in fresh medium prior to their use. The final concentration of DMSO in cell culture wells never exceeded 0.25% (v/v). The FDA-approved anticancer drug set is available from the Developmental Therapeutics Program at https://dtp.cancer.gov/organization/dscb/obtaining/available_plates.htm. All drugs and investigational agents were tested over a range starting from a high concentration at or near the clinical Cmax and decreasing in half-log increments. If the clinical Cmax for an agent had not been determined, the highest concentration tested was 10 microM.
Cell Lines. The patient-derived cancer cell (PDC) lines: 292921-168-R-J2-PDC, K24384-001-R-PDC, and 521955-158-R2-J5-PDC pancreatic carcinomas, 556581-035-R-J1 ovarian carcinoma, 324938-238-R-J1-PDC, 855422-203-R-J1-PDC and 883617-216-R-J1-PDC urothelial bladder carcinomas, 743489-274-T-PDC renal cell carcinoma, 138582-R-J1 Merkel cell tumor, K60290-347-R-J1 and K57222-313-R-J1-PDC glioblastomas, 653999-131-R-J2-PDC, LG0703-F948-PDC, and 349418-098-R-PDC non-small cell lung carcinomas, 885512-296-R-J2-PDC, 171881-019-R-J1-PDC breast carcinomas and 186277-243-T-J2-PDC and 233499-124-R-J2-PDC colon carcinomas were obtained from the NCI Patient-Derived Models Repository (PDMR, https://pdmr.cancer.gov). The established cell lines NCI/ADR-RES (RRID:CVCL_14520 and OVCAR-5 (RRID:CVCL_1628) ovarian carcinomas, 786-O (RRID:CVCL_1051) and A498 (RRID:CVCL_A498) renal cell carcinoma, NCI-H211 (ATCC, cat. CRL-5824; RRID:CVCL_1529), NCI-H196 (ATCC, cat. CRL-5823, RRID:CVCL_1509), SW 1271 (ATCC, cat. CRL-2177, RRID:CVCL_1716) and NCI-H1876 (ATCC, cat. CRL-5902, RRID:CVCL_1503) small cell lung carcinomas, MDA-MB-231 (RRID:CVCL_0062) and MDA-MB-468 (RRID:CVCL_0419)breast carcinomas (10-12). Pooled donor human umbilical vein endothelial cells (HUVEC, Lonza, cat. CC-2519) and human mesenchymal stem cells (hMSC, Lonza, cat. PT-2501) were purchased from Lonza (Walkersville, MD).
Cell Culture. All cells were maintained in an incubator at 37 degrees C and 5% CO2 with 95% humidity. The PDC lines were cultured according to standard operating procedures established by the NCI PDMR (https://pdmr.cancer.gov). Briefly all PDCs were thawed and cultured in Matrigel-coated flasks prepared with a working solution of 1X Ham's F-12 nutrient mix, without supplementation (Invitrogen, Waltham, MA, cat. 11765054), 100 U/mL penicillin-streptomycin (Invitrogen, cat. 15140122), and 2.5% Matrigel (Corning Inc., Corning, NY, cat. 354248) for the first three passages. […]

A number of entries come with more than one value. This list holds those alone. There may be further records. Results that share an entry repeat one measurement in other runs, samples, wells, individuals or studies. Signs of the kind (2×) stand for listed records that agree. Dates in brackets are months of testing.

In the case of `NC1CC1c1ccc(-c2cccc(O)c2)cc1` (stereo not given), where the note is “combination with iadademstat, run of 12/07/2021”, the IC50 is 2.62 µM, > 10 µM, 5.4 µM, 2.47 µM, 6.18 µM, 8.57 µM. Also, the viability, T/C (compound alone 0.316 µM) is 62.7, 66.2 (2×), 76.1, 71.3, 66.8, 69.5, 65.4, 76.5, 67.7, 56.4, 85.4, 87.8, 80.3, 78.4, 87.6, 75.8, 66.5, 67.3, 73, 83.1, 77.5, 70.4, 73.1, 82.1%; the viability, T/C (compound alone 1 µM) is 62.6, 49.3, 65.3, 75.7 (2×), 60.2 (2×), 63.8, 63.5, 82.9, 66.2, 44, 95.9, 87.5, 55.1, 95.8, 63.1, 64.5, 73.7, 76.5, 71.5, 76.7, 70.6, 59.3, 73.5%; the viability, T/C (compound alone 3.16 µM) was 46.1 (2×), 72.4, 51.2, 54.1, 62 (2×), 55.5, 69.8 (2×), 82.5, 63, 78.8, 47.3, 86.8, 63.5, 64.2, 68, 60.8 (2×), 87.3, 68.2, 67.3, 66.5, 60.7%; the viability, T/C (compound alone 10 µM) was 40.4, 49, 79.7, 45.3, 55.8 (2×), 56.2, 73.2, 52.9, 62.2, 72.5, 76.4, 60.2, 50, 88.7, 54.8, 50.4, 59.7, 41, 54.4, 74.7, 57.4, 82, 65.9, 48.3%.

Take `NC1CCC(NC2CC2c2ccccc2)CC1` (stereo not given): the IC50 (combination with iadademstat, run of 11/29/2021) is 4.09 µM and 4.74, 3.91, 4.83, 4.32, 2.47, 3.2, 5.62, 5.69, 5.8, 4.49, 6.28, 3.67, 4.31, 3.28, 7.55, 4.37, 3.34, 5.15, 5.39, 5.96, 7.63, 6.26, 5.89 µM [2021-11]. Also, the viability, T/C by setting is: (compound alone 0.1 µM) 72, 70.5, 70.7, 67.7 (2×), 69.5, 67.9, 72.5, 78.4, 77.7, 61.9, 73.9, 61.4, 79.4, 68.2, 63, 60.7, 67.2, 66.2, 69.3, 86.9, 87.7, 75%; (compound alone 1 µM) 66.1, 52.6, 65.4, 67, 65.9 (2×), 71.1, 57.4, 67.3, 68.3, 63.7, 64.1, 76.2, 63.8, 77.2, 60.5, 67.5 (2×), 61.8, 59.3, 75.2, 73.8, 96, 64.6, 58.3%; (compound alone 3.16 µM) 60.5, 50.9, 50, 62.6, 60.7 (2×), 63.4, 75.1, 53.2, 54.6, 56.9, 54.3, 50.7, 66.9, 57.5, 51.1, 56.3, 58.4, 52.9, 59.1, 64.5, 73.3, 71, 71.7, 59%.

With `CC1(C)CCC(CN2CCN(c3ccc(C(=O)NS(=O)(=O)c4ccc(NCC5CCOCC5)c([N+](=O)[O-])c4)c(Oc4cnc5[nH]ccc5c4)c3)CC2)=C(c2ccc(Cl)cc2)C1`, the IC50 was 7.6 µM [2021-11] and < 31.6 nM [2021-12].
